The experiment has as its system Trichoderma virens ATCC 9645. In words: growth yield (OD600) relative to untreated control; higher = less growth inhibition. The following applies: compound concentration: 100 uM. An outline of the steps: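 Plates were read for OD600 at 40 h and 72 h after Trichoderma virens ATCC 9645 spores (15,000 spores ml^−1 in potato dextrose broth) were grown at 30 °C with library compounds at 100 μM final, with or without a biocide at 200 ng ml^−1. Growth is stated relative to the control with neither agent, as the mean of duplicate screens.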

Molecules are shown by their SMILES. Counter-ions that a name gives are not always drawn. ± gives the standard error. Among all 1,300 compounds or so, about 75 (6%) showed an effect of 50% or more. Some of the results follow.

In the case of `CCCCCN(C)CCC(O)(P(=O)(O)O)P(=O)(O)O` [Ibandronate sodium], the growth yield turned out to be 102.9 ± 0.64% (40 h) and 105 ± 1.4% (72 h).
The corresponding values for `CNc1ncnc2c1ncn2[C@@H]1O[C@H](CO)[C@@H](O)[C@H]1O` [N6-methyladenosine] are 103 ± 4% and 104 ± 1.8%.
The corresponding values for `OCC(O)CN1CCN(c2ccccc2)CC1` (racemic) [Dropropizine (R,S)] are 101 ± 1.6% and 101.7 ± 0.63%.
As to `CC(C)(C)C(=O)OCOC(=O)[C@@H]1N2C(=O)[C@@H](/N=C/N3CCCCCC3)[C@H]2SC1(C)C` [Pivmecillinam hydrochloride], the growth yield by setting is: (40 h) 101 ± 2.4%; (72 h) 96.07 ± 0.21%.
On to `C[C@@H](O)[C@H]1C(=O)N2C(C(=O)O)=C(SCCNC=N)C[C@H]12` [Imipenem], for which the growth yield reads like this: (40 h) 103 ± 2.2%; (72 h) 104 ± 2.2%.
In the case of `c1ccc2c(c1)CCCC2C1=NCCN1` (stereo unspecified) [Tetrahydrozoline hydrochloride], the growth yield runs as follows: (40 h) 96.4 ± 3.6%; (72 h) 96.3 ± 2.3%.
`COc1ccc(CC(C)NCC(O)c2ccc(O)c(NC=O)c2)cc1` (stereo unspecified) [Formoterol fumarate]: the growth yield reads like this: (40 h) 96.3 ± 1.6%; (72 h) 93.34 ± 0.84%.
As to `CCOC(=O)N1CCC(=C2c3ccc(Cl)cc3CCc3cccnc32)CC1` [Loratadine], the growth yield is, setting by setting: (40 h) 19.2 ± 12%; (72 h) 73.6%.
The like results for `CC(=O)[C@@]12O[C@](C)(c3ccccc3)O[C@@H]1C[C@H]1[C@@H]3CCC4=CC(=O)CC[C@]4(C)[C@H]3CC[C@@]12C` [Algestone acetophenide] were, in that order, 111 ± 8.9% and 108 ± 6.3%.
The like results for `COCCCC/C(=N\OCCN)c1ccc(C(F)(F)F)cc1` [Fluvoxamine maleate] were, in that order, 103 ± 2.9% and 100 ± 1.1%.
The corresponding values for `C[C@]12CCC(=O)C=C1CC[C@@H]1[C@@H]2C(=O)C[C@@]2(C)[C@H]1CC[C@]2(O)C(=O)CO` [Cortisone] are 98.48 ± 0.95% and 103.3 ± 0.1%.
Regarding `COC(=O)[C@H](c1ccccc1Cl)N1CCc2sccc2C1` [Clopidogrel], the growth yield (40 h) stood at 76.9 ± 1.6% and the growth yield (72 h) amounted to 82 ± 1.1%.
The corresponding values for `C[C@H](N[C@@H](CCc1ccccc1)C(=O)O)C(=O)N1CCC[C@H]1C(=O)O` [Enalaprilat dihydrate] are 100 ± 2.1% and 100 ± 2%.
The corresponding values for `CN(C)[C@@H]1C(O)=C(C(N)=O)C(=O)[C@@]2(O)C(O)=C3C(=O)c4c(O)cccc4[C@@](C)(O)[C@H]3C[C@@H]12` [Tetracycline hydrochloride] are 95.9% and 76.2 ± 15%.
The like results for `Cc1ccc(N(CC2=NCCN2)c2cccc(O)c2)cc1` [Phentolamine hydrochloride] were, in that order, 99.9 ± 2.4% and 100 ± 2%.
For `CCc1ccc(CCOc2ccc(CC3SC(=O)NC3=O)cc2)nc1` (stereo unspecified) [Pioglitazone], the growth yield by setting is: (40 h) 96.4 ± 1.1%; (72 h) 98.165 ± 1.4e-14%.
Consider `Cc1c(Cl)cccc1Nc1ccccc1C(=O)O` [Tolfenamic acid], for which the growth yield was found to be 88.79 ± 0.16% (40 h) and 94.49 ± 0.32% (72 h).
The like results for `CCCSc1ccc2[nH]c(NC(=O)OC)nc2c1` [Albendazole] were, in that order, 73.2 ± 3.6% and 84.3 ± 5.5%.
The corresponding values for `CO[C@H]1/C=C/O[C@@]2(C)Oc3c(C)c(O)c4c(O)c(c(/C=N/N5CCN(C)CC5)c(O)c4c3C2=O)NC(=O)/C(C)=C\C=C\[C@H](C)[C@H](O)[C@@H](C)[C@@H](O)[C@@H](C)[C@H](OC(C)=O)[C@@H]1C` [Rifampicin] are 85.8 ± 7.3% and 90.1 ± 3%.
The corresponding values for `CC[C@H]1OC(=O)[C@H](C)[C@@H](O[C@H]2C[C@@](C)(OC)[C@@H](O)[C@H](C)O2)[C@H](C)[C@@H](O[C@@H]2O[C@H](C)C[C@H](N(C)C)[C@H]2O)[C@](C)(O)C[C@@H](C)C(=O)[C@H](C)[C@@H](O)[C@]1(C)O` [Erythromycin] are 60 ± 2.9% and 58.1 ± 1.9%.
`c1ccc(CC2=NCCN2)cc1` [Tolazoline hydrochloride]: the growth yield by setting is: (40 h) 102 ± 8.7%; (72 h) 100 ± 5.3%.
The corresponding values for `CC(C)(Oc1ccc(CCNC(=O)c2ccc(Cl)cc2)cc1)C(=O)O` [Bezafibrate] are 101 ± 3.6% and 104 ± 3.2%.
The corresponding values for `OCCN1CCN(CCCN2c3ccccc3Sc3ccc(C(F)(F)F)cc32)CC1` [Fluphenazine dihydrochloride] are 44 ± 6.2% and 90.3 ± 8.9%.
The corresponding values for `Clc1ccc2c(c1)C(N1CCNCC1)=Nc1ccccc1O2` [Amoxapine] are 98 ± 3% and 102.05 ± 0.1%.
The molecule `O=C1c2ccccc2C(=O)C1c1ccccc1` [Phenindione] gave a growth yield (40 h) of 97.5 ± 4.5% and a growth yield (72 h) of 101 ± 3.1%.
The like results for `O=C(O)CCc1nc(-c2ccccc2)c(-c2ccccc2)o1` [Oxaprozin] were, in that order, 92 ± 10% and 90.8 ± 7.8%.
The corresponding values for `COC(=O)C1=C(C)NC(C)=C(C(=O)OC)C1c1ccccc1[N+](=O)[O-]` [Nifedipine] are 44.2 ± 1.3% and 53.1 ± 1.1%.
The corresponding values for `Clc1ccccc1CN1CCc2sccc2C1` [Ticlopidine hydrochloride] are 101 ± 5.1% and 102 ± 3%.
With `CCN(CC)CCOC(=O)C1(c2ccc([N+](=O)[O-])cc2)CCCC1` [Nitrocaramiphen hydrochloride], the growth yield runs as follows: (40 h) 101%; (72 h) 103.3 ± 0.52%.
For the molecule `Nc1ccc(O)c(C(=O)O)c1` [Mesalamine], the growth yield reads like this: (40 h) 101 ± 0.32%; (72 h) 98.58 ± 0.63%.
The like results for `Cc1cc(C(C)(C)CC(C)(C)C)ccc1OCCOCC[N+](C)(C)Cc1ccccc1` [Methyl benzethonium chloride] were, in that order, 1.43 ± 0.79% and 0.944 ± 0.52%.
The corresponding values for `Cc1cc(NC(=O)C2=C(O)c3ccccc3S(=O)(=O)N2C)no1` [Isoxicam] are 92 ± 6.8% and 92.6 ± 7.2%.
The corresponding values for `CO[C@@]1(NC(=O)C2SC(=C(C(N)=O)C(=O)O)S2)C(=O)N2C(C(=O)O)=C(CSc3nnnn3C)CS[C@@H]21` (stereo partly specified) [Cefotetan] are 97.4 ± 3.6% and 99 ± 3.1%.

Values taken from the supplement of paper PMC8007513.
